Screen size: about 43,000 compounds; about 200 (0.47%) were called active. About 12% were inconclusive and are not listed. The call rests on the fitted dose curve; in most records, active means well fitted cell-killing curve with a large enough effect; inconclusive means small, poorly fitted or top-dose-only effect, or effect the other way; inactive means flat fitted curve, though single readings scatter. The list shows a part of the results.
Experiment: Cell viability qHTS assay in S16 Pmp22-F2sN cells; further: nearly all actives have a fitted effect of over 65% in size
Conditions: S16 Pmp22-F2sN Schwann cells (luciferase reporters placed in the Pmp22 gene) viability, CellTiter-Glo, 24 h; series mostly up to 57.5 µM; activity change, negative = cytotoxicity: at the top concentration
In short: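 Seed 500-1,000 S16 Pmp22-F2sN cells per well in phenol-red-free DMEM with 10% heat-inactivated FBS; pin-add 23 nL compound; incubate 24 h at 37C; add CellTiter-Glo, wait 15 min protected from light; read luminescence.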
On the % scale 0 is the no-effect control and ±100 the full control effect.

Structure (SMILES) | activity change, negative = cytotoxicity
Cc1ccc(NC(=O)C2CCN(S(=O)(=O)c3c(C)noc3C)CC2)c(C)c1 | inactive: 14.3%
CCOC(=O)c1c(C)oc2ncnc(N3CCN(c4ccccc4F)CC3)c12 | inactive: -26.8%
O=C(Cc1cccs1)NC1CC(=O)N(c2cccc(F)c2)C1 (configuration not stated) | inactive: 7.74%
CCOc1ccccc1NC(=O)c1cc(=O)c2ccc(C)cc2o1 | inactive: 18.7%
COc1ccc(NC(=O)CSc2oc(-c3cccs3)nc2S(=O)(=O)c2ccc(C)cc2)c(OC)c1 | inactive: 7.22%
CCSc1nc(-c2ccccc2OC)nc2c1Cc1c(CO)cnc(C)c1O2 | inactive: -7.59%
O=C(Nc1cc2c(cc1C(=O)c1ccccc1)OCCO2)c1ccc(Br)cc1 | inactive: -7.91%
CN(C)CCN(Cc1ccccc1)S(=O)(=O)c1ccc2[nH]c(=O)ccc2c1 | inactive: 16.6%
O=C(c1cccn1-c1nnc(N2CCCC2)s1)N1CCN(c2ccccc2)CC1 | inactive: 0.554%
Cc1c(C)c2c(cc(C)c3c(-c4ccccc4)coc32)oc1=O | inactive: -2.07%
O=C(NC1CC(=O)N(c2cccc(F)c2)C1)C1CCCC1 (configuration not stated) | inactive: 0.557%
COc1cc(-c2nc(Cn3nnc(C(=O)Nc4ccccc4)c3C)c(C)o2)cc(OC)c1OC | inactive: -8.9%
Cc1ccc(CNC(=O)c2cccn2-c2nnc(N3CCCCC3)s2)cc1 | inactive: -2.35%
COc1ccccc1-n1ncc2c(=O)[nH]c(SCC(=O)Nc3ccc(Cl)cc3)nc21 | inactive: -1.67%
COc1ccc2oc(=O)c(-c3csc(-c4ccc(Br)cc4)n3)cc2c1 | inactive: 2.94%
Cc1ccccc1-c1nc(SCC(=O)NCc2ccco2)c2c(=O)n(C)c(=O)n(C)c2n1 | inactive: 0.896%
COc1cccc(-n2c(=O)c3c4c(sc3n(Cc3ccc(C)cc3)c2=O)CCCC4)c1 | inactive: 8.74%
COc1ccc(-c2nc(CSCC(=O)N3CCN(c4cccc(C)c4C)CC3)c(C)o2)cc1OC | inactive: -29%
CCN(CC)CCCNC(=O)CN1C(=O)CCn2nc(-c3cn(C)c4ccccc34)cc21 | inactive: 18.4%
Cc1ccc(C(=O)c2cn(CC(=O)NC3CCCCC3)c3nc(C)ccc3c2=O)cc1 | inactive: 4.8%
Cc1c(C(=O)N2CCCC2)oc2c1-c1nn(CC(=O)NCCCOC(C)C)cc1CC2 | inactive: 1.2%
COc1cccc(C(=O)Nc2ccccc2C(=O)OCc2cc(=O)n3nc(C4CC4)sc3n2)c1 | inactive: -0.928%
Cc1nnc(NC(=O)CSCc2cc(=O)c3cc(Cl)ccc3[nH]2)s1 | inactive: 7.78%
CCCCNC(=O)c1nn(-c2ccc(CC)cc2)nc1CO | inactive: -0.195%
Cc1cccc(NC(=O)C2CCN(S(=O)(=O)c3ccc(F)cc3)CC2)c1C | inactive: -1.12%

Structure (SMILES) | activity change, negative = cytotoxicity
COc1cccc(CN(C(=O)c2oc3cc(C)ccc3c2C)C2CCS(=O)(=O)C2)c1 (configuration not stated) | inactive: 1.43%
CCCn1c(=O)sc2cc(NC(=O)COc3ccc(Cl)cc3)ccc21 | inactive: -5.62%
CC1CCC(NC(=O)c2ccc3c(c2)N(Cc2cccc(Cl)c2)C(=O)c2ccccc2S3(=O)=O)CC1 (configuration not stated) | inactive: -9.71%
CCc1ccccc1NC(=O)Cn1nnc(C(=O)NCc2ccccc2Cl)c1N | inactive: 0.483%
COc1cccc2c1cc1c(=O)n(CC(=O)N3CCN(c4cccc(C)c4)C(C)C3)nc(C)n12 (configuration not stated) | inactive: -0.869%
Cc1cc(C)cc(NC(=O)CSc2cc(C)[nH]c(=O)n2)c1 | inactive: -5.04%
CCCC1=Nc2cc(C(=O)NC3CCCC3)ccc2Sc2ccc(C)cc21 | inactive: 1.84%
CCOC(=O)CC(NC(=O)Cn1nnc(-c2ccc(C(F)(F)F)cc2)n1)c1ccc(OC)cc1 (configuration not stated) | inactive: 6.39%
CCOc1ccc(NC(=O)C2CC(=O)N(c3ccc(C(C)C)cc3)C2)cc1 (configuration not stated) | inactive: 21%
COc1ccc(C)cc1NC(=O)c1ccc2c(SCC(=O)O)c3c(nc2c1)CCCC3 | inactive: 4.82%
Cn1c(=O)n(-c2ccc3c(c2)OCO3)c2nc(-c3ccccc3)nc(C(N)=O)c21 | inactive: 5.74%
COc1ccc(NC(=O)c2sc3nc[nH]c(=O)c3c2C)cc1Cl | inactive: -1.25%
COc1cc(CN(C(=O)COc2ccc(C)cc2)c2ccccn2)cc(OC)c1OC | inactive: -5.92%
CC(=O)Nc1ccc(-c2cc(C(=O)O)c3c(-c4ccccc4)[nH]nc3n2)cc1 | inactive: -12.6%
CCc1cccc(C)c1NC(=O)Cn1c(=O)cc(C)c2c(C)nn(-c3cccc(F)c3)c21 | inactive: -2.48%
Cc1cccc(CCNC(=O)CCc2c(C)nc3c4c(C)cc(C)nc4nn3c2C)c1 | inactive: -1.62%
COc1ccc(CNC(=O)Cn2ncc3c([nH]c4ccccc43)c2=O)cc1 | inactive: 1.82%
COc1ccccc1N1CCN(c2cc(C)nc3nc(-c4ccc(C)cc4)nn23)CC1 | inactive: 13%
O=C(NCc1ccc(F)cc1)c1ccc(Nc2nc3ccccc3n3nnnc23)cc1 | inactive: 1.74%
CCS(=O)(=O)c1nc(S(=O)(=O)c2ccc(C)cc2)c(NCCCOC)s1 | inactive: 2.53%
CCCC12CN3CC(CCC)(CN(C1)C3c1ccccc1)C2=O (configuration not stated) | inactive: 1.31%
CCOC(=O)c1ccc(NC(=O)NCCOCCn2c(=O)oc3ccccc32)cc1 | inactive: -6.09%
COc1ccccc1NC(=O)C1CCN(C(=O)c2sc3nc[nH]c(=O)c3c2C)CC1 | inactive: 11.3%
CC(=O)c1ccc(NC(=O)c2ccc(-c3ccc(Cl)cc3)o2)cc1 | inactive: 20.8%
CCN(CC)CCNC(=O)c1ccc2nc(CCc3ccccc3)oc2c1 | inactive: -23.6%

Structure (SMILES) | activity change, negative = cytotoxicity
Cc1cc2oc3c(c(=O)c2cc1C)C1(C(=O)N(C)c2ccccc21)N(CCO)C3=O (configuration not stated) | inactive: 10.3%
CCn1c(CNC(=O)c2ccc(OC)cc2)nnc1SCC(=O)Nc1ccc(C)cc1 | inactive: 0.229%
Nc1cc(=O)nc(SCC(=O)Nc2ccc(F)cc2)n1CCc1ccccc1 | inactive: 14.7%
COc1ccc(N2CC(NC(=O)c3ccco3)CC2=O)cc1 (configuration not stated) | inactive: 0.411%
COc1ccc(CNC(=O)CSc2nc(-c3ccc(OC)c(OC)c3)cc(C(F)(F)F)n2)cc1 | inactive: 3%
CC(CNC(=O)c1ccc(CSc2nc3ccncc3n2Cc2ccccc2)cc1)c1ccccc1 (configuration not stated) | inactive: -17.9%
Cc1ccc(CCNC(=O)CS(=O)Cc2nc(-c3ccccc3C)oc2C)cc1 (configuration not stated) | inactive: 3.6%
CCN(Cc1ccccc1)C(=O)Cn1c(=O)n(-c2ccc(Cl)cc2)c(=O)c2c(C)c(C(=O)N(C)C)sc21 | inactive: 19.9%
CCCCN(C)S(=O)(=O)c1ccc(C(=O)Nc2sc3c(c2C(N)=O)CC(C)(C)NC3(C)C)cc1 | inactive: 0.456%
CCCc1ccc(-c2ccc(C(=O)Oc3ccc(OCC)cc3)cc2)nc1 | inactive: 16.3%
O=C(Cn1ncc2c3ccccc3n(Cc3cccc(Cl)c3)c2c1=O)NCc1cccs1 | inactive: -2.57%
CCc1ccc(OCc2nc(-c3ccc(OC)cc3)no2)c(Br)c1 | inactive: 9.71%
O=C(Cn1cnc2c(oc3ccccc32)c1=O)Nc1ccc(F)cc1F | inactive: 7.33%
O=C(CSc1nc2c(oc3ccccc32)c(=O)n1Cc1ccco1)Nc1ccccc1Cl | inactive: 2.11%
O=C(Nc1ccc2nc(SCC(=O)N3CCCC3)sc2c1)c1cccc(Br)c1 | inactive: 2.31%
Cc1ccc(C)c(CNC(=O)CCn2cccn2)c1 | inactive: 5.8%
Cc1cc(C)cc(N2C(=O)CSC23C(=O)N(CC(=O)Nc2ccc(F)cc2F)c2ccccc23)c1 (configuration not stated) | inactive: 5.57%
Cc1cccc(NC(=O)C2CCN(c3nc4ccccc4[nH]3)CC2)c1C | inactive: 17.8%
CCOCCCN1C(=O)c2[nH]nc(-c3ccccc3O)c2C1c1ccc(CC)cc1 (configuration not stated) | inactive: 8.13%
CCCCc1nn2c(=O)cc(COC(=O)c3ccc(NC(=O)CCc4ccccc4)cc3)nc2s1 | inactive: -1.68%
CCOC(=O)c1oc2c(c1C)-c1nn(Cc3c(F)cccc3Cl)cc1CC2 | inactive: 0.0263%
CCc1cccc(NC(=O)Cn2c(=O)n(CC(=O)NCCc3ccccc3)c(=O)c3ccccc32)c1 | inactive: -5.01%
O=C1CC(c2ccccc2)c2c(n3ncnc3[nH]c2=O)N1 (configuration not stated) | inactive: -1.43%
CC(C)CCn1c(=O)c2sccc2n2c(CCCC(=O)NCCc3ccccc3)nnc12 | inactive: 13.3%
Cc1nc2ccc(S(=O)(=O)N(CC(=O)Nc3cccc(F)c3)Cc3ccccc3)cc2s1 | inactive: 18.2%

Structure (SMILES) | activity change, negative = cytotoxicity
CC(C)N(C)C1CCN(S(=O)(=O)c2ccc3[nH]c(=O)ccc3c2)CC1 | inactive: 4%
COc1cccc(CNC(=O)c2oc3c(c2C)-c2nn(Cc4cccc(Cl)c4)cc2CC3)c1OC | inactive: -3.79%
COc1ccccc1C(=O)N1CCC(c2noc(-c3ccc(S(=O)(=O)N4CCCC4)cc3)n2)CC1 | inactive: -23.5%
O=C(NCCc1ccc(Cl)cc1)c1ccc(CS(=O)Cc2ccccc2Cl)o1 (configuration not stated) | inactive: -10.3%
COc1cccc(CSc2nc3n(n2)C(CC(C)C)C(C(=O)Nc2ccccc2OC)=C(C)N3)c1 (configuration not stated) | inactive: -7.88%
CCCCN(CC)CCCNC(=O)Cn1ncc2c3ccccc3n(C)c2c1=O | inactive: -3.25%
CCOc1ccc(OCC)c(NC(=O)Cn2nc(CC)n3c(cc4sccc43)c2=O)c1 | inactive: -1.92%
Cc1cc(=O)n2nc(N(C)CC(=O)NCc3cccc(Br)c3)sc2n1 | inactive: 21.8%
Cc1ccc(NC(=O)CCN2CCN(CCO)CC2)cc1C | inactive: 0.738%
CCOc1ccc(-c2nn(CC(=O)NC3CCCC3)c3c2cnc2ccc(C)cc23)cc1 | inactive: 6.16%
COc1ccc(CCNC(=O)c2ccc3c(c2)N(Cc2ccc(Cl)cc2)C(=O)c2ccccc2S3)cc1OC | inactive: -3.81%
Cc1ccc(S(=O)(=O)CC(=O)Nc2sc3c(c2C(N)=O)CCCC3)cc1 | inactive: -2.71%
CC(C)CCNC(=O)Nc1ccc2c(c1)N(Cc1ccccc1)C(=O)c1ccccc1S2 | inactive: -24.4%
CCc1ccc(NC(=O)Cc2c(C(=O)O)c(C)cn2C)cc1 | inactive: 6.46%
Cc1ccccc1Nc1c(-c2ccc(Br)o2)nc2ccc(Cl)cn12 | inactive: -0.439%
CCN(CC)c1cc2c(cc1F)c(=O)c(S(=O)(=O)c1ccc(OC)cc1)cn2Cc1ccccc1 | inactive: -3.68%
CCOC(=O)Cc1ccc(NC(=O)N2CCC(CN3CCCCCC3)CC2)cc1 | inactive: 13.1%
CC(=O)c1ccc(NC(=O)Cn2c(-n3nc(C)cc3C)nc(C)c(C)c2=O)cc1 | inactive: 13.4%
CCc1ccc(Oc2c(C(F)(F)F)oc3c(CN4CCC(C)CC4)c(O)ccc3c2=O)cc1 | inactive: 6.23%
CCCCN(CC)C(=O)c1cc2c(=O)n3cccc(C)c3nc2n1C | inactive: 16.2%
Cc1c(CCNC(=O)c2ccco2)sc2nc(-c3ccc(F)cc3)nn12 | inactive: 9.2%
Cc1ccc(NC(=O)CN2CCSc3ccc(S(=O)(=O)N4CCCC4)cc32)cc1 | inactive: -9.27%

Reference: PubChem BioAssay AID1508642 (National Center for Advancing Translational Sciences (NCATS), 2021)
